From PMC6199309, “A therapeutic approach to pantothenate kinase associated neurodegeneration” (Nature Communications, 2018)

What was measured:
Test in all cases: KINOMEscan
EGFR(L747-T751del,Sins) = tested on: EGFR(L747-T751del,Sins)
From the text: (§1) The KINOMEscan™ screening platform employs a novel and proprietary active site-directed competition binding assay to quantitatively measure interactions […]
(§2) between test compounds and more than 450 human kinases and disease relevant mutant variants. This robust and reliable assay technology affords investigators […]
(§3) the ability to extensively annotate compounds with accurate, precise and reproducible data. […]
(§4) thermodynamic interaction affinities, as opposed to IC50 values, which can depend on the ATP concentration.
(§5) Compounds that bind the kinase active site and directly (sterically) or indirectly (allosterically) prevent kinase binding to the immobilized ligand, will reduce the […]
(§6) amount of kinase captured on the solid support (A & B). […]
(§7) the solid support (C). Screening "hits" are identified by measuring the amount of kinase captured in test versus control samples by using a quantitative, precise and […]
(§8) ultra-sensitive qPCR method that detects the associated DNA label (D). In a similar manner, dissociation constants (Kds) for test compound-kinase interactions are […]
(§9) calculated by measuring the amount of kinase captured on the solid support as a function of the test compound concentration.
(§10) Kinase assays. For most assays, kinase-tagged T7 phage strains were grown in parallel in 24-well blocks in an E. coli host derived from the BL21 strain. E. […]
(§11) coli were grown to log-phase and infected with T7 phage from a frozen stock (multiplicity of infection = 0.4) and incubated with shaking at 32°C until lysis (90-150 minutes). The lysates were centrifuged (6,000 x g) and filtered (0.2µm) to remove cell debris. The remaining kinases were produced in HEK-293 cells and […]
(§12) subsequently tagged with DNA for qPCR detection. Streptavidin-coated magnetic beads were treated with biotinylated small molecule ligands for 30 minutes at room […]
(§13) temperature to generate affinity resins for kinase assays. The liganded beads were blocked with excess biotin and washed with blocking buffer (SeaBlock (Pierce), 1 % BSA, 0.05 % Tween 20, 1 mM DTT) to remove unbound ligand and to reduce non-specific phage binding. Binding reactions were assembled by combining […]
(§14) prepared as 40x stocks in 100% DMSO and directly diluted into the assay. All reactions were performed in polypropylene 384-well plates in a final volume of 0.02 ml. […]
(§15) for 30 minutes. The kinase concentration in the eluates was measured by qPCR. […]
(§16) The compound(s) were screened at the concentration(s) requested, and results for primary screen binding interactions are reported as '% Ctrl', where lower numbers […]
(§17) indicate stronger hits in the matrix on the following page(s). […]
(§18) test compound = compound submitted by St Jude Childrens Research Hospital (Sharma) […]
(§19) interactions with quantitative binding constant determinations. […]

FLT3(D835V) = biological target: T1, FLT3(D835V) (Homo sapiens, UniProt P36888, D835V); conditions: read-out: %Ctrl @ 10000nM
T1 construct: purchased DiscoverX KINOMEscan
T1 sequence (P36888 27-993 D835V): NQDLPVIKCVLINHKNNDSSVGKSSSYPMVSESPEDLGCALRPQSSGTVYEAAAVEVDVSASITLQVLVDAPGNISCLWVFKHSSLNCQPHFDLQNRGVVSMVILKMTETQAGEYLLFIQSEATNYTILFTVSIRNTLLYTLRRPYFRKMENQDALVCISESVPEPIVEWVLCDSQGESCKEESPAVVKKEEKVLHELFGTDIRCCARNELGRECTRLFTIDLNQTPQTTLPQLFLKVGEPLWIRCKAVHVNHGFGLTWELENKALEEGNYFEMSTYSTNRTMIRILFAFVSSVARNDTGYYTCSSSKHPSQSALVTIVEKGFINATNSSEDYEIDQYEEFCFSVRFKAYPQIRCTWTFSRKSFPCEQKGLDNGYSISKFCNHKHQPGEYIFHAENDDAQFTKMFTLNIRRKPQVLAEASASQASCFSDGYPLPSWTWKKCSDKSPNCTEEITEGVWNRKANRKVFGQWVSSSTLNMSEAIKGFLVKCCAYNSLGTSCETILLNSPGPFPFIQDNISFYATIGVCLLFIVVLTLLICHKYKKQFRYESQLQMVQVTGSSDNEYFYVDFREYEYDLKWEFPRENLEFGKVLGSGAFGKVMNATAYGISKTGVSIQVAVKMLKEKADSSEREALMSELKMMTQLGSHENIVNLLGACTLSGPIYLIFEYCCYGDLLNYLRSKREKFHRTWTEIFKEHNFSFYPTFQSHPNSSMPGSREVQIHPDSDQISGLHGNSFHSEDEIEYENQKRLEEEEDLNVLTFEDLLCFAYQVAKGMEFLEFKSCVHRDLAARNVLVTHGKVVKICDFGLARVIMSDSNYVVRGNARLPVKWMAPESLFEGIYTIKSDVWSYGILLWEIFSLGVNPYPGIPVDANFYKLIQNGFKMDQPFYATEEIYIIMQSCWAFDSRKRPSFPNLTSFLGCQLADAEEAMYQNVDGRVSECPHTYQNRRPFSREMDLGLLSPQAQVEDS
From the text: as §1, §2, §3, §4, §5, §6, §7, §8, §9, §10, §11, §12, §13, §14, §15, §16, §17, §18, §19

FLT3(ITD,D835V) = tested on: FLT3(ITD,D835V)
From the text: as §1, §2, §3, §4, §5, §6, §7, §8, §9, §10, §11, §12, §13, §14, §15, §16, §17, §18, §19

FLT3(ITD,F691L) = tested on: FLT3(ITD,F691L)
From the text: as §1, §2, §3, §4, §5, §6, §7, §8, §9, §10, §11, §12, §13, §14, §15, §16, §17, §18, §19

SMILES: CC(C)c1ccc(CC(=O)N2CCN(c3ccc(C#N)nn3)CC2)cc1 [PZ-2891, 6-(4-(2-(4-isopropylphenyl)acetyl)piperazin-1-yl)pyridazine-3-carbonitrile]
- %Ctrl @ 10000nM (EGFR(L747-T751del,Sins)): 100%
- remaining binding at 10 µM (FLT3(D835V)): 78%
- %Ctrl @ 10000nM (FLT3(ITD,D835V)): 85%
- %Ctrl @ 10000nM (FLT3(ITD,F691L)): 76%
